# Test results published in PubChem BioAssay AID1460 (National Center for Advancing Translational Sciences (NCATS), 2008).
# Among all 270,000 compounds or so, about 5,800 (2.1%) were called active. Inconclusive results, whose numbers are uncertain, are shown with a selection of clear calls. The call rests on the fitted dose curve; in most records, active means well fitted inhibition curve with a large enough effect; inconclusive means small, poorly fitted or top-dose-only effect; inactive means flat fitted curve, though single readings scatter. A potency beside an inconclusive call is a rough fit, not a confirmed value.
# Molecular target: Microtubule-associated protein tau (Homo sapiens) (UniProt P10636)
# Chain of UniProt P10636 (P10636 whole entry, looked up): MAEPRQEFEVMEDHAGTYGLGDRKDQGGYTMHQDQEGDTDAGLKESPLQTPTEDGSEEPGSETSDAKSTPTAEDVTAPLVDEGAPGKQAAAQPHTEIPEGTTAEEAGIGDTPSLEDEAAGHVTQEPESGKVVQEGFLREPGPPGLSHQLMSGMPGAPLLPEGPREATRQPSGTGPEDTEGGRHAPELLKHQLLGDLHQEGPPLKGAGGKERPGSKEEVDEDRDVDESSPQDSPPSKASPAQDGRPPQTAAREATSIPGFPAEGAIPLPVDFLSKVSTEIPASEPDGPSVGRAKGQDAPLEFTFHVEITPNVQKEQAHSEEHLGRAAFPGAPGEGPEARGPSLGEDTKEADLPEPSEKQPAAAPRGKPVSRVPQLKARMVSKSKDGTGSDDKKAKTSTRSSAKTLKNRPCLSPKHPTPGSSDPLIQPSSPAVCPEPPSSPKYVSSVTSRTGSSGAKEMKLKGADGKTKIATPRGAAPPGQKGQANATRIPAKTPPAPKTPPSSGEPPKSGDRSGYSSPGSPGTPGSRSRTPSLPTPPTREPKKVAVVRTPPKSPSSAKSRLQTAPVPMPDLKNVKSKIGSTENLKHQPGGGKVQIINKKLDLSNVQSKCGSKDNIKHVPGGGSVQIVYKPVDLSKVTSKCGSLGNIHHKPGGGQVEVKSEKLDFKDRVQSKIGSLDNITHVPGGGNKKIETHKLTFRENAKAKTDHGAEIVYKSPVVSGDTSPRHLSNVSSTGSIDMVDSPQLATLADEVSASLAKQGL
# Experiment: qHTS for Inhibitors of Tau Fibril Formation, Thioflavin T Binding; further: nearly all actives have a fitted effect of over 55% in size
# Conditions: recombinant tau K18 P301L (four-repeat tau fragment), heparin-induced fibrillization, ThT fluorescence; series mostly up to 57.4 µM
# Procedure, shortened: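 Recombinant human tau K18 fragment […] carrying P301L, 15 uM unlabeled plus 0.24 uM Alexa 594-labeled, was fibrillized with 20 uM heparin in 100 mM sodium acetate pH 7 for 6 hr at 37 C; 30 uM ThT fluorescence read after 1 hr.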
# On the % scale 0 is the no-effect control and ±100 the full control effect; potency means the concentration at half of the fitted maximal effect; tags describe the fitted curve by direction and shape.
Structure (SMILES),Potency,"activity, negative = inhibition"
O=C(NCCc1ccccc1)c1cc(-c2ccc3c(c2)OCO3)on1,"inconclusive: 0.708 µM [inhibitor, full curve]",
CCOC(=O)c1c(NC(=O)Nc2ccccc2)sc(C)c1C,inactive,
CC(C)=NO[C@@H](C)c1cc(-c2c(C)cc(C)cc2C)no1,,inactive: -7.54% [at 11.5 µM]
COc1ccccc1NC(=O)N1CC=C(c2c[nH]c3ccccc23)CC1,"inconclusive: 11.2 µM [inhibitor, partial curve]",
COc1ccc(CNc2nc(-c3cccnc3)nn2C(=O)c2cccs2)cc1,"inconclusive: 28.2 µM [inhibitor, partial curve]",
O=C(Cc1ccc(F)cc1)N/N=C/c1ccccn1,inactive,
COc1cccc(C2=NN(S(C)(=O)=O)C(c3cn(-c4ccccc4)nc3-c3cccs3)C2)c1 (centres undefined),inactive,
O=c1c2cc(Br)ccc2nc(-c2ccc([N+](=O)[O-])cc2)n1O,"inconclusive: 11.2 µM [inhibitor, partial curve]",
O=C1NC(=S)S/C1=C\c1cc2ccccc2nc1N1CCCCC1,active: 14.1 µM,
N#CC1=C(N)OC2=C(CCC/C2=C/c2ccoc2)C1c1ccoc1 (centres undefined),active: 28.2 µM,
C=CCn1c(=O)/c(=C2/SC(C)=C(C)N2CC)s/c1=C1/C(=O)N(CC)C(=S)N1c1ccccc1,"inconclusive: 12.6 µM [inhibitor, partial curve]",
COc1ccc(NC(=O)CNS(=O)(=O)c2ccc(Cl)cc2)cc1,inactive,
COc1cc2c(cc1NC(=O)CN1C(=O)NC3(CCc4ccccc43)C1=O)oc1ccccc12 (centres undefined),"inconclusive: 3.55 µM [inhibitor, single point]",
Cn1nnc(NC(=O)c2ccco2)n1,inactive,
CCSc1nnc([C@H](Cc2ccccc2)NC(=O)OC(C)(C)C)o1,inactive,
O=C(Nc1ccccc1Cl)c1cc(S(=O)(=O)N2CCCC(C(=O)O)C2)ccc1F (centres undefined),inactive,
COc1ccc(CCNC(=S)NCCc2ccc(OC)c(OC)c2)cc1OC,"inconclusive: 15.8 µM [inhibitor, partial curve, poor fit]",
COc1cc(C)ccc1OCCOCCOc1c(C)cc(C)cc1Br,"inconclusive: 12.6 µM [inhibitor, partial curve]",
CCOc1ccccc1C(=O)N(Cc1ccc(N(C)C)cc1)Cc1ccco1,"inconclusive: 17.8 µM [inhibitor, partial curve]",
C=C(C)COc1ccc(-c2[nH]ncc2Oc2ccccc2OC)c(O)c1,"inconclusive: 28.2 µM [inhibitor, single point]",
COc1cc(C(=S)N2CCOCC2)cc(OC)c1OC(=O)Cc1ccc(F)cc1,inactive,
O=C(CSc1ccc(-c2ccco2)nn1)NCc1ccc(Cl)cc1,"inconclusive: 7.94 µM [inhibitor, partial curve]",
Clc1ccc2nc(-c3ccc4c(c3)OCO4)cn2c1,"inconclusive: 2 µM [inhibitor, full curve]",
Cc1ccc(Nc2c(-c3ccc(N(C)C)cc3)nc3ccccn23)cc1,inactive,
O=[N+]([O-])c1cccc(S(=O)(=O)N2CCCCCC2)c1,inactive,

Structure (SMILES),Potency,"activity, negative = inhibition"
CCN(CC)c1ccc(CN(C(=O)c2cc(OC)c(OC)c(OC)c2)C2CCS(=O)(=O)C2)cc1 (centres undefined),inactive,
COC(=O)/C(C(C)=O)=C(\C=C\N(C)C)N(C)C,inactive,
COC(=O)CCCC1=CC2=CC(=O)C(C)(OC(=O)c3cccs3)C(=O)C2=CN1Cc1ccco1 (centres undefined),"inconclusive: 14.1 µM [inhibitor, partial curve]",
Cc1cccc(N2CCN(C(=S)c3ccc([N+](=O)[O-])cc3)CC2)c1,inactive,
CCOc1cc(/C=N\NC(=O)CN2CCOCC2)ccc1OCc1ccc(F)cc1,inactive,
CC1Cc2ccccc2N1C(=S)Nc1ccc(S(N)(=O)=O)cc1 (centres undefined),inactive,
CCCC(=O)Nc1ccc2c(c1)nc1n2CCSC1,"inconclusive: 28.2 µM [inhibitor, single point]",
CC1(C)CC(=O)C(C=NCc2ccc3c(c2)OCO3)=C(O)C1,inactive,
CCOc1ccc2[nH]c3c(=O)n(CCc4ccc(OC)cc4)cnc3c2c1,"inconclusive: 1.78 µM [inhibitor, full curve]",
COc1ccc(C(=O)c2cn(Cc3ccccc3F)c3ccc(F)cc3c2=O)cc1,inactive,
CC(C)C(=O)N(Cc1ccc(F)cc1)Cc1nc2ccccc2c(=O)[nH]1,inactive,
COc1ccc2c(c1)c(C(=O)N/N=C/c1ccccc1Cl)c(C)n2C,"inconclusive: 31.6 µM [inhibitor, partial curve]",
COc1ccc(/C=C/c2nc3ccccc3n2Cc2ccccc2OC)cc1,"inconclusive: 25.1 µM [inhibitor, single point]",
COc1cc(C(=O)Nc2ccccc2OCc2cc(=O)n3cc(C)sc3n2)cc(OC)c1OC,inactive,
COc1ccc(CC(=O)N2CCN(C(=O)c3ccco3)CC2)cc1,inactive,
Cc1ccc(-c2nnc(Nc3ccc(Cl)cc3)c3ccccc23)cc1S(=O)(=O)NCC1CCCO1 (centres undefined),inactive,
COC(=O)CN1C(=O)S/C(=C/c2ccc(N3CCCCC3)o2)C1=O,active: 25.1 µM,
O=C(c1cccc(Cl)c1)N1CCC(c2nc3c(nnn3Cc3ccc(F)cc3F)c(=O)[nH]2)CC1,inactive,
CCOc1ccc(C(=O)Nc2ccc(Cc3ccncc3)cc2)cc1Br,"inconclusive: 39.8 µM [activator, single point]",
Cc1cc2ccccn2c1C(=O)c1ccc(Cl)c([N+](=O)[O-])c1,"inconclusive: 17.8 µM [inhibitor, partial curve]",
NS(=O)(=O)c1ccc(CNC(=O)c2cc(-c3ccccn3)nc3ccc(Cl)cc23)cc1,inactive,
Cc1c(C(=O)N/N=C/C(C)C)[nH]c2c([N+](=O)[O-])cccc12,"inconclusive: 12.6 µM [inhibitor, partial curve]",
Cc1cc(N2CCC(C)CC2)nc(SCC(=O)c2ccccc2)n1,"inconclusive: 17.8 µM [inhibitor, single point]",
COCc1cc(C)nc(N2CCN(Cc3ccccc3)CC2)c1C#N,inactive,
CCN1C(=O)/C(=C\c2cccs2)C(C(=O)OC)=C1C,"inconclusive: 17.8 µM [inhibitor, partial curve]",

Structure (SMILES),Potency,"activity, negative = inhibition"
CCCCC(=O)Nc1cccc(-c2csc(-c3ccccc3)n2)c1,"inconclusive: 7.94 µM [inhibitor, single point]",
COc1ccc(NC(=O)c2c(NC(=O)COc3ccc(Cl)cc3)sc3c2CCCCC3)cc1,"inconclusive: 22.4 µM [inhibitor, partial curve]",
CCN(CC)c1ccc(/C=N/Nc2ccc(C)cc2)c(O)c1,active: 25.1 µM,
COc1ccc(/C(O)=C2/C(=O)C(=O)N(Cc3ccco3)C2c2cccs2)cc1 (centres undefined),"inconclusive: 25.1 µM [inhibitor, partial curve]",
CSc1ccccc1NC(=O)C1=CC(c2ccc3c(c2)OCO3)=NS(=O)(=O)N1C,inactive,
CC1=C(C(N)=O)C(c2cccc(C)c2)n2nc(-c3ccc(Cl)cc3)nc2N1 (centres undefined),"inconclusive: 7.08 µM [inhibitor, partial curve]",
CC1Cc2nc(SCC(=O)NC3CCCCC3)n(C)c(=O)c2S1 (centres undefined),"inconclusive: 20 µM [inhibitor, partial curve]",
COc1ccccc1NC(=O)c1sc2nc(Cc3ccccc3)cc(C(F)(F)F)c2c1N,inactive,
Cc1ccc(C(=O)O)cc1-c1ccc(/C=C2\SC(=O)N(CC(=O)Nc3ccccc3)C2=O)o1,"inconclusive: 2.82 µM [inhibitor, full curve]",
COCCN1C(=O)Cc2c1nc(N)c1c(N)nc(N3CCN(c4ccc(F)cc4)CC3)c(C#N)c21,"inconclusive: 17.8 µM [inhibitor, partial curve]",
O=C(NCCCN1CCN(c2ccc(F)cc2)CC1)c1cc2c(s1)-c1ccccc1OC2,"inconclusive: 8.91 µM [inhibitor, partial curve]",
Cc1ccc2nc3ccc(N4CCCCCCC4)nn3c(=O)c2c1,inactive,
COc1ccc(CNC(=S)Nc2ccc(OC)cc2)cc1,inactive,
c1ccc(C2c3[nH]c4ccccc4c3CCN2Cc2cccn2-c2ccccn2)nc1 (centres undefined),"inconclusive: 25.1 µM [inhibitor, partial curve]",
Cc1ccc(C)c(NC(=O)COc2cccc3c2CCN(Cc2ccccc2C)C3=O)c1,"inconclusive: 17.8 µM [inhibitor, single point]",
CSc1nc(C)c2c(n1)N(c1cccc(C)c1)CC2,"inconclusive: 28.2 µM [inhibitor, partial curve]",
Cc1cccc(-n2c(-c3csc(C)c3)n[nH]c2=S)c1,inactive,
CCCCNC(=O)c1sc(=S)n(-c2ccccc2OC)c1N,inactive,
O=C(N/N=C/c1ccc(Cl)cc1Cl)c1cccc(F)c1,"inconclusive: 28.2 µM [inhibitor, partial curve, poor fit]",
Cc1nn(CCCC(=O)NCc2ccccc2)c(=O)c2c1sc1ccccc12,"inconclusive: 15.8 µM [activator, partial curve]",
CCOC(=O)c1ccc(NC(=O)c2nc(S(=O)(=O)Cc3ccccc3)ncc2Cl)cc1,"inconclusive: 11.2 µM [inhibitor, partial curve, poor fit]",
Cc1cc(C)n2nc3nc(N4CCCCC4)nc(-c4ccco4)c3c2n1,"inconclusive: 28.2 µM [inhibitor, single point]",
CCOC(=O)N1CCc2c(sc3c2c(=O)n(Cc2ccccc2)c(=O)n3Cc2cccc(Cl)c2)C1,inactive,
CN(C)c1ccc(CNc2ncc(Br)cc2Br)cc1,"inconclusive: 25.1 µM [inhibitor, single point]",
